# Data from PubChem BioAssay AID1347120 (National Center for Advancing Translational Sciences (NCATS), 2019).
# Where “and” joins values, the source holds several entries; their conditions need not be identical. Equal values may be shown once. Among all 390,000 compounds or so, about 930 (0.24%) were called active. This list was built around the results that the source calls inconclusive (neither active nor inactive); the mix of calls is not that of the screen. Calls come from the whole dose curve; as a rule, active = well fitted activation curve with a large enough effect; inconclusive = small, poorly fitted or top-dose-only effect; inactive = no such curve, though single readings can be large or run the other way. A potency beside an inconclusive call is a rough fit, not a confirmed value.
# Experiment: qHTS for Suppressors of FUS Proteinopathy: Primary screen using FUS-linked yeast assay; note: nearly all actives have a fitted effect of over 55% in size;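 for growth rescue (activation): plate controls were DMSO vehicle for no effect and reference control for full effect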
# Conditions: S. cerevisiae FUS-expressing, OD600, 24 h; Potency: growth rescue; growth rescue (activation): at 76.6 µM (top of the series)
# In short: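 Quantitative HTS measuring growth restoration of FUS-toxic yeast. Galactose-induced cells (OD 0.005) were exposed 24hr at 30C to compounds at several concentrations, then absorbance at 600 nm was recorded.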
# Potency is the fitted concentration of half-maximal effect; tags give direction and shape of the fitted curve.
SMILES,Potency,growth rescue (activation)
Cc1ccc(C)c(N2CCN(C(=O)CCNS(=O)(=O)c3ccc4c(c3)oc(=O)n4C)CC2)c1,inactive,
Cc1cc(S(=O)(=O)N2CCCC(C(=O)Nc3ccc(C(=O)O)cc3)C2)ccc1Cl (stereo not drawn),inactive,
COc1cc(NC(=O)c2cc(C)on2)cc(C(=O)Nc2cccc(C(F)(F)F)c2)c1,inactive,
ON1C(c2ccccc2)CC2(O)c3nonc3CCC12 (stereo not drawn),,inconclusive: 62.8% [activator]
O=C(c1cc([N+](=O)[O-])cc([N+](=O)[O-])c1)N(Cc1nnc(-c2ccccc2Cl)o1)C1CC1,"inconclusive: 44.7 µM [activator, partial curve, poor fit]",
C=CC[C@@H](Cc1ccc(F)cc1)C(=O)OC[C@H]1CCCN1C(=O)[C@H](CC=C)CC(=O)N(CCO)Cc1ccccc1,"inconclusive: 17.8 µM [activator, partial curve, poor fit]",
O=C(CCC1CCCCC1)NNC(=O)NC12CC3CC(CC(C3)C1)C2,active: 25.1 µM,
Cc1ccc(S(=O)(=O)N2CCN(C(=O)CN3CCCSc4ccccc43)CC2)cc1,"inconclusive: 20 µM [activator, partial curve, poor fit]",
O=C1CN(C(=O)c2ccc(S(=O)(=O)N3CCCCC3)cc2)C(c2ccc(F)cc2)c2cc(Cl)ccc2N1 (stereo not drawn),"inconclusive: 20 µM [activator, partial curve, poor fit]",
O=C1CC2(CCN(C(=O)c3ccc(Br)cc3)CC2)Oc2ccccc21,inactive,
COCCNc1nc(-c2cc(-c3ccccc3)on2)cc(C(C)C)n1,inactive,
Cc1c(Cl)cccc1NC(=O)CSc1nc(=O)[nH]c2c1CCCC2,inactive,
Cc1cccc2c(C(=O)N3CCN(c4ccccn4)CC3)cc(-c3cccc(Br)c3)nc12,"inconclusive: 25.1 µM [activator, single point]",
COc1ccc(-c2c[n+]3c4n2CCCCC4=C(c2ccc(Br)cc2)C3)cc1,"inconclusive: 31.6 µM [activator, partial curve, poor fit]",
COC(=O)c1ccc(NC(=S)NCCc2cccc(C)c2)cc1,inactive,
O=P(COCCOCCOCCOCP(=O)(c1ccccc1)c1ccccc1)(c1ccccc1)c1ccccc1,"inconclusive: 14.1 µM [activator, partial curve]",
COc1cc(CSc2ncc(CO)n2Cc2ccc(C)cc2)cc(OC)c1,inactive,
CC(C)c1ccc(CN(C(=O)/C=C/c2ccco2)C2CCS(=O)(=O)C2)cc1 (stereo not drawn),"inconclusive: 50.1 µM [activator, single point]",
COc1cc2nc(N3CCN(c4cc(C)ccc4C)CC3)nc(N)c2cc1OC,"inconclusive: 22.4 µM [activator, partial curve]",
O=C(CSc1nc2ccccc2nc1N1CCCCC1)N1CCN(S(=O)(=O)c2ccccc2)CC1,"inconclusive: 25.1 µM [activator, partial curve, poor fit]",
COC(=O)c1c(-c2cccc3ccccc23)csc1NC(=O)Cc1ccc(OC)c(OC)c1,,inconclusive: 109% [activator]

SMILES,Potency,growth rescue (activation)
Cc1ccc(OCC(=O)Nc2ccc(-c3nnc(-c4ccco4)o3)cc2)cc1,"inconclusive: 50.1 µM [activator, single point]",
Cc1ccccc1CC1(CO)CCCN(C(=O)c2cc(-c3ccccc3)no2)C1 (stereo not drawn),"inconclusive: 31.6 µM [activator, single point]",
COc1ccc(/C(N)=N/OC(=O)c2ccco2)cc1,inactive,
CC(C)(C)Cc1c(-c2ccco2)nc2ccc(Cl)cn12,inactive,
COc1ccc(-c2cc(C(=O)O)sc2C)cc1,inactive,
COc1cc(/C=C/C(=O)OCC(=O)Nc2ccc(C)c(S(=O)(=O)N3CCCCC3)c2)ccc1O,"inconclusive: 50.1 µM [activator, single point]",
O=C(NC1CCCCC1)C(c1cccnc1)N(C(=O)CCl)c1ccc(F)cc1 (stereo not drawn),inactive,
O=C(NCc1ccc(Cl)cc1)c1ccc(CNS(=O)(=O)c2ccc(F)cc2)cc1,inactive,
COCC(=O)N(Cc1cc2ccc(C)cc2[nH]c1=O)c1ccc(OC)cc1,"inconclusive: 25.1 µM [activator, partial curve, poor fit]",
Cn1nc(-c2ccccc2F)c2cc(C(=O)N3CCN(C(=O)c4ccco4)CC3)sc21,"inconclusive: 31.6 µM [activator, single point]",
Cc1ccc2c(c1)-c1c(cnn1CC(=O)N1CCN(c3cc(C)ccc3C)CC1)CO2,inactive,
CC(=O)c1ccc(N2CCN(C(=O)CCNC(=O)Cn3ccc4ccccc4c3=O)CC2)cc1,"inconclusive: 2.51 µM [activator, full curve]",
COC(=O)[C@@]12CCCCN1[C@H](c1ccc(-c3ccc(C(C)=O)cc3)c(OC)c1)[C@@H]1C(=O)N(C)C(=O)[C@@H]12,"inconclusive: 28.2 µM [activator, single point]",
C#CCOCCOCCOCCNc1nc(N2CCOCC2)nc(N2CCN(C(=O)CCCCCCCCCCNC(=O)[C@@H]([C@H](C)CC)n3cc(CCCCCN)nn3)CC2)n1,"inconclusive: 5.62 µM [activator, full curve]",
Cc1ccc(-c2nnn(CC(=O)NCCC3=CCCCC3)n2)cc1,inactive,
COC(=O)c1cc(S(=O)(=O)N2CCN(c3cc(Cl)ccc3C)CC2)c[nH]1,"inconclusive: 31.6 µM [activator, single point]",
Cc1ccc(C(=O)NCCC(C)C)cc1NC(=O)c1nsc2ccccc12,inactive,
COc1ccc(-c2ccc(-c3nc4ccc(C)cn4c3NC3CCCCC3)cc2OC)cc1,"inconclusive: 28.2 µM [activator, partial curve] and inconclusive: 44.7 µM [activator, single point]",
CCN(c1ccccc1)S(=O)(=O)c1cccc(C(=O)N(C)CCOc2ccccc2)c1,"inconclusive: 28.2 µM [activator, single point]",
CCn1c(SCC(=O)N2CC(C)OC(C)C2)nc2c([nH]c3ccccc32)c1=O (stereo not drawn),inactive,
O=C1CN(C(=O)c2ccc(S(=O)(=O)N3CCCC3)cc2)C(c2ccccc2)c2cc(Cl)ccc2N1 (stereo not drawn),"inconclusive: 31.6 µM [activator, single point]",

SMILES,Potency,growth rescue (activation)
CCCCCCCCN1C(=O)[C@H](CC(=O)NCCCOCCCC)C[C@@]2(C(=O)OC)CCCCC=C12,"inconclusive: 12.6 µM [activator, partial curve, poor fit]",
CC(C)(C)CC(C)(C)NC(=O)c1ccc2snnc2c1,inactive,
COC(=O)c1sc(S(=O)(=O)NCc2cccs2)c(C(=O)OC)c1C,inactive,
Cc1ccc2ccc(S(=O)(=O)NCc3ccccn3)cc2c1,"inconclusive: 35.5 µM [activator, partial curve, poor fit]",
CCCCn1c(CNC(=O)C23CC4CC(CC(C4)C2)C3)nnc1SC(C)CC (stereo not drawn),"inconclusive: 28.2 µM [activator, partial curve]",
CC(=O)N1CCN(c2ccccc2NC(=O)c2ccc(Br)o2)CC1,"inconclusive: 2.51 µM [activator, full curve]",
Cc1nc2c(C(=O)N3CCOCC3)cnn2c(C)c1Cc1ccc(Cl)cc1,inactive,
COc1ccc(C(=O)N/N=C(/C)c2cccc(NC(=O)c3ccncc3)c2)cc1OC,"inconclusive: 22.4 µM [activator, partial curve, poor fit]",
Cc1ccccc1-c1noc(-c2ccc(N3CCC(C)CC3)c([N+](=O)[O-])c2)n1,inactive,
Cc1cc(OC(C)C(=O)NCCCN2CCCC2=O)c2c(C)c(C)c(=O)oc2c1 (stereo not drawn),"inconclusive: 2.51 µM [activator, full curve]",
CCOc1ccc(S(=O)(=O)N2CCC(C(=O)Nc3ccc(C)c(S(=O)(=O)N4CCOCC4)c3)CC2)cc1,"inconclusive: 25.1 µM [activator, single point]",
Cc1csc2nc(-c3ccc(NS(=O)(=O)c4cccc(F)c4)cc3)cn12,"inconclusive: 50.1 µM [activator, single point]",
Cc1cc(C(=O)CN2C(=O)c3ccccc3S2(=O)=O)c(C)n1-c1ccccc1,"inconclusive: 22.4 µM [activator, partial curve, poor fit]",
Cc1cc(C)n2nc(-c3ccsc3-n3c(C)ccc3C)cc2n1,"inconclusive: 56.2 µM [activator, partial curve, poor fit]",
COc1cc(NS(=O)(=O)c2ccc(N/C=C(\C#N)c3nc4cc(Cl)ccc4o3)cc2)nc(OC)n1,"inconclusive: 14.1 µM [activator, partial curve, poor fit]",
CCCN(C(=O)COC(=O)c1[nH]c(C)c(C(=O)OC)c1C)c1c(N)n(Cc2ccccc2)c(=O)[nH]c1=O,"inconclusive: 28.2 µM [activator, single point]",
COc1ccc(S(=O)(=O)Nc2cccc(-c3ccc(N4CCCCCC4)nn3)c2)cc1F,"inconclusive: 31.6 µM [activator, single point]",
Cc1c(Cc2ccccc2)sc(/N=C/c2c(O)ccc3ccccc23)c1C(N)=O,"inconclusive: 31.6 µM [activator, single point]",
CN(C(=O)COC(=O)c1ccccc1NCc1ccco1)c1c(N)n(Cc2ccccc2)c(=O)[nH]c1=O,"inconclusive: 28.2 µM [activator, single point]",
Cc1cccc(-c2c3c(=O)n(C)c(=O)n(C)c3cn2-c2ccc(O)cc2)c1,,inconclusive: 59.7% [activator]
Cn1c(COc2ccccc2)nnc1SCC(=O)Nc1ccc(N2CCOCC2)c(Cl)c1,"inconclusive: 8.91 µM [activator, partial curve]",
